Laboratory results from patent publication US12296012 (Pfizer, dated 2025).

Target: T1, human FLT3 (human, UniProt P36888 27-541, limits assumed)
T1 construct: Soluble analyte hFLT3 in SPR; also called hFLT3; huFlt3
T1 sequence: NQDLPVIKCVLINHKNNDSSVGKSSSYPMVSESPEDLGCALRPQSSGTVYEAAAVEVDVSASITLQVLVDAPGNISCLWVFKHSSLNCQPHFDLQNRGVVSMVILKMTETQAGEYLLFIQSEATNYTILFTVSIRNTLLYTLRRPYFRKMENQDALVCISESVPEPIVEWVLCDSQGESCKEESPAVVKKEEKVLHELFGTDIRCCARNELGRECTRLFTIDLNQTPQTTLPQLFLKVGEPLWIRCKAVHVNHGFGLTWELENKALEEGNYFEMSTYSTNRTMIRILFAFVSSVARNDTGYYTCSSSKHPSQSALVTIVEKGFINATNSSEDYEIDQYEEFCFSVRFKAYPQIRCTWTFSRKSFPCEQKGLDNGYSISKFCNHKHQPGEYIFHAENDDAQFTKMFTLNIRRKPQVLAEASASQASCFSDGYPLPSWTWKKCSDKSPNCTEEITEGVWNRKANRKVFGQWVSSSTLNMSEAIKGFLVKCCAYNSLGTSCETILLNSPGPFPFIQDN
Experiment: SPR Biacore T200, 37C; scFv format

B1: P4F6 (scFv format) (scFv, not shown: a dimerising Fc or GST; small tags and cut ends)
scFv: QVQLVQSGAEVKKPGSSVKVSCKASGGTFGSYGISWVRQAPGQGLEWMGGIIPIFGTVTYAQKFQGRVTITADESTRTAYMELSSLRSEDTAVYYCARDSWSGATGASDTWGQGTLVTVSSGGGGSGGGGSGGGGS[not shown - about 100 residues]RTFGQGTKVEIK
  Kd: 15.1 nM
  koff: 0.00199 s⁻¹
  t1/2: 5.8 min
